Assays:
[1] = target: T1, recombinant human PD1 protein (human, UniProt Q15116 fragment, limits assumed); test: binding ELISA, plate-coated recombinant human PD1
Method: Antibodies of the invention were tested for their antigen binding activity by well-known methods such as enzyme-linked immunosorbent assay (ELISA). Briefly, Nunc Maxisorp plates (ThermoFisher) were coated with recombinant human PD1 protein in bicarbonate buffer, pH 9.4 (ThermoFisher), overnight at 4° C., using 1 μg of antigen per well (100 μL/well). After triple washing with PBS/0.05% Tween 20, plates were incubated with SuperBlock (ThermoFisher) for two hours at room temperature to block nonspecific binding. The PD1 antibodies, serially diluted three-fold with blocking buffer (PBS with 1% bovine serum albumin) were added to the plates (100 μL/well) post washing and incubated at room temperature for one hour. After another washing, antibodies were detected by incubating with a horseradish peroxidase (HRP)-conjugated goat anti-human IgG Fc antibody (ThermoFisher) diluted 1:5000 in blocking buffer (100 μL/well) for one hour at room temperature. After a final wash, TMB substrate (ThermoFisher) at 100 μL/well was added. Plates were sealed and left to incubate in dark for 5-20 minutes. The reaction was stopped by adding 2N sulfuric acid (Ricca Chemical) (50 μL/well), and the absorbance was measured at 450 nm with a plate reader. The curves were plotted, and the half-maximal effective concentration (EC₅₀) values were calculated using GraphPad Prism software.

[2] = target: T1, recombinant human PD1 protein; test: competition ELISA, PD1 coated, biotinylated human PD-L1-Fc at 0.5 µg/mL as competitor
Method: A non-targeting germline antibody, P-1260 (SEQ ID NOS: 171, 172 and 173) was included as the negative control. The binding ELISA procedures were outlined in Example 3. The competition ELISA followed a similar protocol. […] After 1-hour incubation at 37° C., HRP-conjugated Streptavidin (ThermoFisher) diluted to 0.1 μg/ml were added to the plate and incubate at 37° C. for 1 hour. The plate was subsequently developed using TMB (ThermoFisher) substrate. Absorbance readings were taken at 450 nm, with 630 nm as the reference wavelength. The half-maximal inhibitory concentrations (IC50) values were deduced using GraphPad Prism software.

T1 sequence (Q15116 25-170 limits assumed): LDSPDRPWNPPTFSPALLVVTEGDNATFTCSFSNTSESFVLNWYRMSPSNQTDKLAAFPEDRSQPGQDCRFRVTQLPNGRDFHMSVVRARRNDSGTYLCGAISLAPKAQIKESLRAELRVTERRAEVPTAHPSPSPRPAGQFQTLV

EC50 [1]: 0.0304 nM
IC50 [2]: 1.88 nM
B1: P-1352 (other)
heavy 1: QVQLVQSGAEVKKPGASVKVSCKASGYTFTNYYMYWVRQAPGQGLEWMGGINPSNGGTNFAQKFQGRVTLTTDSSTSTAYMELSSLRSDDTAVYYCARRDYRFDMGFDYWGQGTLVTVSSASTKGPSVFPLAPSSKSTSGGTAALGCLVKDYFPEPVTVSWNSGALTSGVHTFPAVLQSSGLYSLSSVVTVPSSSLGTQTYICNVNHKPSNTKVDKKVEPKSCDKTHTCPPCPAPEAAGAPSVFLFPPKPKDTLMISRTPEVTCVVVDVSHEDPEVKFNWYVDGVEVHNAKTKPREEQYNSTYRVVSVLTVLHQDWLNGKEYKCKVSNKALPAPIEKTISKAKGQPREPQVYTLPPCREEMTKNQVSLWCLVKGFYPSDIAVEWESNGQPENNYKTTPPVLDSDGSFFLYSKLTVDKSRWQQGNVFSCSVMHEALHNHYTQKSLSLSPGGGGGSGGGGSGGGGS[letters of about 120 residues left out]
heavy 2: QVQLVQSGAEVKKPGASVKVSCKASGYTFTNYYMYWVRQAPGQGLEWMGGINPSNGGTNFAQKFQGRVTLTTDSSTSTAYMELSSLRSDDTAVYYCARRDYRFDMGFDYWGQGTLVTVSSASTKGPSVFPLAPSSKSTSGGTAALGCLVKDYFPEPVTVSWNSGALTSGVHTFPAVLQSSGLYSLSSVVTVPSSSLGTQTYICNVNHKPSNTKVDKKVEPKSCDKTHTCPPCPAPEAAGAPSVFLFPPKPKDTLMISRTPEVTCVVVDVSHEDPEVKFNWYVDGVEVHNAKTKPREEQYNSTYRVVSVLTVLHQDWLNGKEYKCKVSNKALPAPIEKTISKAKGQPREPQVCTLPPSREEMTKNQVSLSCAVKGFYPSDIAVEWESNGQPENNYKTTPPVLDSDGSFFLVSKLTVDKSRWQQGNVFSCSVMHEALHNHYTQKSLSLSPG
light: EIVLTQSPATLSLSPGERATLSCRASQGVSTSGYSYLHWYQQKPGQAPRLLIYLASYRESGVPARFSGSGSGTDFTLTISSLEPEDFAVYYCQHSRDLPLTFGGGTKVEIKRTVAAPSVFIFPPSDEQLKSGTASVVCLLNNFYPREAKVQWKVDNALQSGNSQESVTEQDSKDSTYSLSSTLTLSKADYEKHKVYACEVTHQGLSSPVTKSFNRGEC
chain: ITCPPPMSVEHADIWVKSYSLYSRERYICNSGFKRKAGTSSLTECVLNKATNVAHWTTPSLKCIRDPALVHQRPAPP
notes: also called PD1 Ab-IL15 immunocytokine; human PD1 Ab-IL-15 I68H/Q108N immunocytokine

From US20260078159A1 (CUGENE, published 2026)
